For 5 substances, binding results are on record in PMC6377148.

Protein sequences, listed by entry. Tags and fused reporters are not part of them.
UniProt P24863: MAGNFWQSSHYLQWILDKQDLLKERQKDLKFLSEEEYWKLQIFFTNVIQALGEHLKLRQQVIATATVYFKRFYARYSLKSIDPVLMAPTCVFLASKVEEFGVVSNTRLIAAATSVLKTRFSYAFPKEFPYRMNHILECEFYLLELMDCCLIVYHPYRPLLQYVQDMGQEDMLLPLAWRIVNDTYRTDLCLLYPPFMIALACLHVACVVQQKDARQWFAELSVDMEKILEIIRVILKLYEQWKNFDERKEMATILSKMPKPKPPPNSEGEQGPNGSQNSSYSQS
UniProt Q92547: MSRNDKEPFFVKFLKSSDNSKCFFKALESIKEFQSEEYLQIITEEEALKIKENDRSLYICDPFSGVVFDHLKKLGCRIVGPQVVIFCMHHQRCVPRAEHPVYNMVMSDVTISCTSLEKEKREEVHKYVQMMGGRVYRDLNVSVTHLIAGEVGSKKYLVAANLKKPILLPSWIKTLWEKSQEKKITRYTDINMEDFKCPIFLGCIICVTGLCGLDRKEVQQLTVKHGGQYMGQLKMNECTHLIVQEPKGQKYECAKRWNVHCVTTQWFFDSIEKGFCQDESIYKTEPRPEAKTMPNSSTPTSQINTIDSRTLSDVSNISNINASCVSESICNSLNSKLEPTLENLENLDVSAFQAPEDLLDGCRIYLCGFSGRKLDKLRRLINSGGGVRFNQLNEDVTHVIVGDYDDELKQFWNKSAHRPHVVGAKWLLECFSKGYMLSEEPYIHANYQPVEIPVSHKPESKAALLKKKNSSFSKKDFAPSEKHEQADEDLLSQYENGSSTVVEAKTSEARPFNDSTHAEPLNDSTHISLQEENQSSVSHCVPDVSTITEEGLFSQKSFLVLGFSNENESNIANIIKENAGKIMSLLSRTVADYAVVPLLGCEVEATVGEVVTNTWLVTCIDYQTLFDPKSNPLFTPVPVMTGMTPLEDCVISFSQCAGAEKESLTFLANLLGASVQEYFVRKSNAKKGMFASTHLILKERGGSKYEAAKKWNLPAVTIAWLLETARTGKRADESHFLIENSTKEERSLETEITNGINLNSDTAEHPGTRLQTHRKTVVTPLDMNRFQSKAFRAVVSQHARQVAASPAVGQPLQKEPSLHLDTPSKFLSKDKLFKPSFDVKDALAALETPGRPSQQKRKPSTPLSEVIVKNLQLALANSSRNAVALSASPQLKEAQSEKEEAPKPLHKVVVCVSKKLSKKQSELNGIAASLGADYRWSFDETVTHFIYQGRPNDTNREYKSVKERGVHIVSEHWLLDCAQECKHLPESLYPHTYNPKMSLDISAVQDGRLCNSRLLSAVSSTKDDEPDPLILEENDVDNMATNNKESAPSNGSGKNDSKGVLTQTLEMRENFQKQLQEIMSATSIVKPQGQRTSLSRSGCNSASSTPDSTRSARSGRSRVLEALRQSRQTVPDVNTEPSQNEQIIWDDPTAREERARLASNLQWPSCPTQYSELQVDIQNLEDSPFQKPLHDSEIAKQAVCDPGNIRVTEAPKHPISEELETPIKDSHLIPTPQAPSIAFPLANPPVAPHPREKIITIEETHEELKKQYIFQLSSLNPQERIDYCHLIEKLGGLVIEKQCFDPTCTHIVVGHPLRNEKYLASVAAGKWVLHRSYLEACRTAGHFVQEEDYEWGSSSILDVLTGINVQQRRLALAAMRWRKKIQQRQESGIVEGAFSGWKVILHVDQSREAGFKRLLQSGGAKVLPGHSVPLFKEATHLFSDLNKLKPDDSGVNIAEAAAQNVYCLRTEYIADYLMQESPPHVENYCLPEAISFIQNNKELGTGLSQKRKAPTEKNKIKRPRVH
UniProt Q9UHV7: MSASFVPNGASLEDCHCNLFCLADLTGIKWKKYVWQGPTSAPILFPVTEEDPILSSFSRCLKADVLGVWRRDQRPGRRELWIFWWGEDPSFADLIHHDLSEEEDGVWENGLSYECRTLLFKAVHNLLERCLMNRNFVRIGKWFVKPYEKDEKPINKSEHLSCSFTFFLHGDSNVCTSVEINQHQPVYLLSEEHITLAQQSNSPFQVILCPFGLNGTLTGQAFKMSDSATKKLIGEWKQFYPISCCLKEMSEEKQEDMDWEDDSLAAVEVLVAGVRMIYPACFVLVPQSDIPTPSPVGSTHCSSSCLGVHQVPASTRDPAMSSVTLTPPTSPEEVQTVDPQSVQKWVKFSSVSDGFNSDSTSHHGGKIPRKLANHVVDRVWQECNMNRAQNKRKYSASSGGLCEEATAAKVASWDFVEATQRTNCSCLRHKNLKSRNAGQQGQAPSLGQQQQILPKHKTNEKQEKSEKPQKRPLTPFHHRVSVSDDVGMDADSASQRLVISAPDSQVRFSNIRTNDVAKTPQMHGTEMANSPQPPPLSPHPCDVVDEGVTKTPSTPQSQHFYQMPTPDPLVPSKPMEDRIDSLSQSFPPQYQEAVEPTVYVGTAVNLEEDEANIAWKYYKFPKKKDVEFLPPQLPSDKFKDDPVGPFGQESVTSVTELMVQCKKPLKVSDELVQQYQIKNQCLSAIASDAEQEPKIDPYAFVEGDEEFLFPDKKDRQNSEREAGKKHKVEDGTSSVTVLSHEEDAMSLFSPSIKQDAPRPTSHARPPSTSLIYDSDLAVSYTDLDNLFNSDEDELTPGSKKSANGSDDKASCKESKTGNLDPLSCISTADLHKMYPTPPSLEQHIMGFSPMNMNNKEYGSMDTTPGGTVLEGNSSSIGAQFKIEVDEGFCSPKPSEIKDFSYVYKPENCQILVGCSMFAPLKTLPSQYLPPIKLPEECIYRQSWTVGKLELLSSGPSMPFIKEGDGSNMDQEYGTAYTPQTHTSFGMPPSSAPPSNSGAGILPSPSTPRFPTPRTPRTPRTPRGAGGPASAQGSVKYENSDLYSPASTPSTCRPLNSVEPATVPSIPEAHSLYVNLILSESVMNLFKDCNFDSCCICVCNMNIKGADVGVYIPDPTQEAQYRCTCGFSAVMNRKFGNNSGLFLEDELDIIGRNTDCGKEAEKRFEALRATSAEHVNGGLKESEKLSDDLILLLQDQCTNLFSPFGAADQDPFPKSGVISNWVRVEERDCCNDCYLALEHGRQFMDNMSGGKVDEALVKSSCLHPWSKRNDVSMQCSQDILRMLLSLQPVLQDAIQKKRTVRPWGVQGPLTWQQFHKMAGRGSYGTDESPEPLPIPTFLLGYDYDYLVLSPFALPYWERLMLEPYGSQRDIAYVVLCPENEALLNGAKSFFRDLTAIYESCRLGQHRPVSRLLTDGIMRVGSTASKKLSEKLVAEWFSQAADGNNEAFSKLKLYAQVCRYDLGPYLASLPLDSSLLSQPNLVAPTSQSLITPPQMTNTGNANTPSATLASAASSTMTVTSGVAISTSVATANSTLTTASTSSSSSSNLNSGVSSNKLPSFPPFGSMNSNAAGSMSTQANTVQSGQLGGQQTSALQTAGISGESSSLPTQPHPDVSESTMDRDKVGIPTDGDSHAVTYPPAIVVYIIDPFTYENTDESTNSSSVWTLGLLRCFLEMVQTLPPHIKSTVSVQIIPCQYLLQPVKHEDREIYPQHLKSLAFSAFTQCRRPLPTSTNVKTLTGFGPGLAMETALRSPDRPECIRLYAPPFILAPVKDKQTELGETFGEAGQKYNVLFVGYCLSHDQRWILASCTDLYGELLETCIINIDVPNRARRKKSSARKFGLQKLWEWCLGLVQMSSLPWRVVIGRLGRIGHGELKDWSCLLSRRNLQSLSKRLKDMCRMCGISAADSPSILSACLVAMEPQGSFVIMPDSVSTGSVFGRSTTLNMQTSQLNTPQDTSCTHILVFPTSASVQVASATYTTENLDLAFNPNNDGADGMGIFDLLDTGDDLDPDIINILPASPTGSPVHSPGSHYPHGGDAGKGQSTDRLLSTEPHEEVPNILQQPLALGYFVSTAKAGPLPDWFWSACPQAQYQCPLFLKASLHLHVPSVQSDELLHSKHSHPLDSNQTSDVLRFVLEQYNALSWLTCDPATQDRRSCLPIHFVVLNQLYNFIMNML
UniProt P49336: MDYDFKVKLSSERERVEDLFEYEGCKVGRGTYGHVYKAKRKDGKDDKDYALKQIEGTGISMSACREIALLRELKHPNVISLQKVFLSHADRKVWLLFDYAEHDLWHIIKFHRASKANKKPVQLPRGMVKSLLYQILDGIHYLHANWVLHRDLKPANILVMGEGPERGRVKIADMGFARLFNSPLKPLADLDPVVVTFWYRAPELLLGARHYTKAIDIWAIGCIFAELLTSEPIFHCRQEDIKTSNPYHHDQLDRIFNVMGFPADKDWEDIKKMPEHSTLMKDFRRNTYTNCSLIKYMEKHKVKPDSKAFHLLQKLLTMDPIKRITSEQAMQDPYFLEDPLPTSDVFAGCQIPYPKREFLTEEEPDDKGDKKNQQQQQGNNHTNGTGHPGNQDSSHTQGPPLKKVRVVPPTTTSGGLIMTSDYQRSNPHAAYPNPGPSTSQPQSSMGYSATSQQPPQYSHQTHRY
UniProt Q7Z2Z1: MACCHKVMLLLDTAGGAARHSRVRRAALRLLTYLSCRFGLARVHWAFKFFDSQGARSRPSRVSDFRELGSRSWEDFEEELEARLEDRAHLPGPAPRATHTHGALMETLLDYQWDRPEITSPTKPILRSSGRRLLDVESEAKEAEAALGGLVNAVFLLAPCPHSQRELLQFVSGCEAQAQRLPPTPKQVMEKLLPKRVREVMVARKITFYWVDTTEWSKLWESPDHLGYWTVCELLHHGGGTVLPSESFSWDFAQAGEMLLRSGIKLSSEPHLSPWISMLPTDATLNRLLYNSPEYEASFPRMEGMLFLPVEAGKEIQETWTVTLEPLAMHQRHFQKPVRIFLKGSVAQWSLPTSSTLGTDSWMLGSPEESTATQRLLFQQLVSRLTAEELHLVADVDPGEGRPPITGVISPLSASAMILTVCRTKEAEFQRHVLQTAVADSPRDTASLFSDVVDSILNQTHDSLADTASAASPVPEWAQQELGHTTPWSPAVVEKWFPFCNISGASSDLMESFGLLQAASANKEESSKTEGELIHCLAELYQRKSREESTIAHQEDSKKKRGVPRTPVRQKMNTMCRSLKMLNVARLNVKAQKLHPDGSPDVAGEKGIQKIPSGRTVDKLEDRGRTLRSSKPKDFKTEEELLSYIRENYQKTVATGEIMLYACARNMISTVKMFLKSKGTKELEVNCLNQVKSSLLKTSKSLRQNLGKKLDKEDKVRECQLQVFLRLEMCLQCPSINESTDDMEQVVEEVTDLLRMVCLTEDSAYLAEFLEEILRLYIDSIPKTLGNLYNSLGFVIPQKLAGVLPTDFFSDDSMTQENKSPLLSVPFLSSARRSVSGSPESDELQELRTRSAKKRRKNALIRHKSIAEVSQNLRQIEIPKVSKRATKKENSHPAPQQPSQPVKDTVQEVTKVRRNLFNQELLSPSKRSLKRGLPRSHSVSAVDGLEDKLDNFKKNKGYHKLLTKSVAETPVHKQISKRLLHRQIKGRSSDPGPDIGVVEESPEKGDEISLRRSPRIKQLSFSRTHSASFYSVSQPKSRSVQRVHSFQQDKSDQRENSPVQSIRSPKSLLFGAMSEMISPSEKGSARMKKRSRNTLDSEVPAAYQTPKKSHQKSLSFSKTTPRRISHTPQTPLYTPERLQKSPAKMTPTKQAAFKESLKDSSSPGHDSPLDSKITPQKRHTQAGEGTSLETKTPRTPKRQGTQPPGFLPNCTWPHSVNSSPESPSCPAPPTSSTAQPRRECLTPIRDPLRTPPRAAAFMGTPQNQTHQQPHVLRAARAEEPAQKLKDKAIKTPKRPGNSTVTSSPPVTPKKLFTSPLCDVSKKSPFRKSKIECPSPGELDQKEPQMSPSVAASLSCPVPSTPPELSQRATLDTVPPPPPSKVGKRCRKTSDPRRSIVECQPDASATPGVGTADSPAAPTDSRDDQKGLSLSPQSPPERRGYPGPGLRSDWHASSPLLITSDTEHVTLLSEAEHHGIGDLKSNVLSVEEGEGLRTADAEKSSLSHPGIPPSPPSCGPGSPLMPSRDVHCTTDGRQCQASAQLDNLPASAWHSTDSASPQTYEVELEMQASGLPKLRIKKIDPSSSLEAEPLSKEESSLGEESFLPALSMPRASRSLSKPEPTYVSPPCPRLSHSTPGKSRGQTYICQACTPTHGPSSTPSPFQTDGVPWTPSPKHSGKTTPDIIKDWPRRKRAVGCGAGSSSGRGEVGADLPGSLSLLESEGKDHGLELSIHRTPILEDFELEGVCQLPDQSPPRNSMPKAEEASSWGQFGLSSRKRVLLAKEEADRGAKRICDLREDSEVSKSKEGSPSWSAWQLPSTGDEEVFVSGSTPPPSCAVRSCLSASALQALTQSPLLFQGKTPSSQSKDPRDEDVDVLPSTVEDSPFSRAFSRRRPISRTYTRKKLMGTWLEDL

These are yes or no findings as the source states them, for the method shown. Binding seen in cells or lysates may run through a third protein. Some binding calls cover weakened binding; strength is not graded here. For some of these results: Tags and fused reporters may be left off the sequences shown.

Assay [1] concerns the target T1, MTBP (Mdm2 binding protein), endogenous (human (endogenous in HeLa and 293T)) (UniProt Q96DY7).
T1 sequence: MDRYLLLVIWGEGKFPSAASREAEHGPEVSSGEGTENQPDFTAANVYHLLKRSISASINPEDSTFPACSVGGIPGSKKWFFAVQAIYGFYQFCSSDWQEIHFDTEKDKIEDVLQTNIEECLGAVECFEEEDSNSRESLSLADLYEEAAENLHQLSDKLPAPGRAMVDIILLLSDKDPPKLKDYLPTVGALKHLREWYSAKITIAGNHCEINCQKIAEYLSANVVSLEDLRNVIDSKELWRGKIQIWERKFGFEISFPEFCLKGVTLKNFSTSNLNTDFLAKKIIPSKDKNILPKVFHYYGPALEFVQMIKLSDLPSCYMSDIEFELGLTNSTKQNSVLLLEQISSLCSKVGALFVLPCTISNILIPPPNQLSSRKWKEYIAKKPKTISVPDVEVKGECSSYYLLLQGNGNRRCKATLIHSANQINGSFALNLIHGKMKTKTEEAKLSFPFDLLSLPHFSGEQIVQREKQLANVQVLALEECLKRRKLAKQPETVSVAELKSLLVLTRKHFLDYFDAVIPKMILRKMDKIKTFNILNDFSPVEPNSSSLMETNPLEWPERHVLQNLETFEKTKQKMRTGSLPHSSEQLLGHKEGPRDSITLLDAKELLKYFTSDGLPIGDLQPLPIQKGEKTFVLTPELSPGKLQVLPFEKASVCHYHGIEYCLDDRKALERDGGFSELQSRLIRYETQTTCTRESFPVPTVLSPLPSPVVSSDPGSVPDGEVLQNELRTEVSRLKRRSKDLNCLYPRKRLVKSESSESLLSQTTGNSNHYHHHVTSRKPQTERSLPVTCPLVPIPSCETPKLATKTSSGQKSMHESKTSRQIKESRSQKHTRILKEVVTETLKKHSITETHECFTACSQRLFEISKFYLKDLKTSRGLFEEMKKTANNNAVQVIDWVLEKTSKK
Briefly: co-IP; antibodies to endogenous MTBP, cyclin C, Cdk8 or TopBP1 (control IgG) on Protein G Dynabeads in native lysates of HeLa Flip-In T-Rex, HeLa-Kyoto or 293T cells, 150 mM NaCl, 0.1% Triton X-100, 2 h at 4°C; unsynchronised or synchronised cells (M, G1, G1/S, S); TopBP1 IP with or without Cdk2-cyclin A and ATP added to the lysate.

For assay [2], the target named is T2, MTBP-WT, C-terminally Flag-GFP-tagged (293T) (human) (UniProt Q96DY7).
T2 sequence: T1 sequence
Briefly: co-IP; 293T transiently transfected with GFP-tagged MTBP or Treslin/TICRR; anti-GFP nanobodies on NHS sepharose, lysis buffer with 250 mM NaCl, 1 h at 4°C; endogenous partners by immunoblot. (In general: Immunoblotting shows a protein as a band on a membrane.)

For assay [3], the target named is T3, C-terminal MTBP-A516–K904 fragment (293T) (human) (UniProt Q96DY7).
T3 sequence: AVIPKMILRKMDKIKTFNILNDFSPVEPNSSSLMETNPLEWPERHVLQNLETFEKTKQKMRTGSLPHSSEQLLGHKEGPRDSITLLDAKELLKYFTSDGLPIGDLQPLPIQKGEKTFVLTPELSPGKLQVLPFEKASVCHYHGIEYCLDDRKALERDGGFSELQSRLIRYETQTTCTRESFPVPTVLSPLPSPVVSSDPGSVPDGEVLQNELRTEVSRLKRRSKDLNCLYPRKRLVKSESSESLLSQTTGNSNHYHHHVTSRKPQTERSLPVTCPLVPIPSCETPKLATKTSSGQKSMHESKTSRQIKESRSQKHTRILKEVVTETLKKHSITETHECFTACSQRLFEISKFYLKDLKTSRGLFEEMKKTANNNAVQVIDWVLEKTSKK
Described as above.

Assay [4] deals with T4, MTBP TresBD fragment (Treslin/TICRR binding domain) (293T) (human) (UniProt Q96DY7).
T4 sequence: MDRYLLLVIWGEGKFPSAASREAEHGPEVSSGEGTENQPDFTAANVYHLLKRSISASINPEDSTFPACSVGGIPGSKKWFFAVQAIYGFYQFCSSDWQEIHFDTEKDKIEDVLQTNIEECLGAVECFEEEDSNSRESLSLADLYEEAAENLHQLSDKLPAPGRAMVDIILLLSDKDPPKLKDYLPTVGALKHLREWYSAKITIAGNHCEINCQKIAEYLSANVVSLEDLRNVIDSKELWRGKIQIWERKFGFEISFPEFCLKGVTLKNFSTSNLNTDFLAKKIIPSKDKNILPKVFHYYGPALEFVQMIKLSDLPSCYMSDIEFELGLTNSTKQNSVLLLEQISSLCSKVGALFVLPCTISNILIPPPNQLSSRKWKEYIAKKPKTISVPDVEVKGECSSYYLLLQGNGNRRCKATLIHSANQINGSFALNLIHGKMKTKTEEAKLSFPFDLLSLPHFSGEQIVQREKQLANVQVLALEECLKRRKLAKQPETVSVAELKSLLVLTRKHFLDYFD
The assay is described as above.

Assay [5] concerns the target T5, MTBP fragment of amino acids R595 to P704 (293T) (human) (UniProt Q96DY7).
T5 sequence: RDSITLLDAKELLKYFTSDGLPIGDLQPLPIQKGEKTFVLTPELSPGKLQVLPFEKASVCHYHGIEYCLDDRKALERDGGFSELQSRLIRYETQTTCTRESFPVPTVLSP
Briefly: co-IP; 293T transiently transfected with N- or C-terminal MTBP fragments; IP from native lysates with anti-GFP (S12B panel i) or anti-Cdk8 (panels ii, iii); the panel of this fragment is not told.

The target of assay [6] is T6, MTBP-WT, C-terminally 3×Flag-tagged (293T) (human) (UniProt Q96DY7).
T6 sequence: T1 sequence
Briefly: co-IP; 293T transiently transfected with C-terminally 3×Flag-tagged MTBP; anti-FLAG antibody on Protein G Dynabeads, lysis buffer 20 mM HEPES, 150 mM NaCl, 10% glycerol, 0.1% Triton X-100, 1 h at 4°C; endogenous Treslin/TICRR and Cdk8 by immunoblot.

The target in assay [7] is cyclin C, endogenous (human (endogenous in HeLa and 293T)) (UniProt P24863). Briefly: co-IP; antibodies to endogenous MTBP, cyclin C, Cdk8 or TopBP1 (control IgG) on Protein G Dynabeads in native lysates of HeLa Flip-In T-Rex, HeLa-Kyoto or 293T cells, 150 mM NaCl, 0.1% Triton X-100, 2 h at 4°C; unsynchronised or synchronised cells (M, G1, G1/S, S); TopBP1 IP with or without Cdk2-cyclin A and ATP added to the lysate.

Assay [8] deals with TopBP1 (Topoisomerase II binding protein 1), endogenous (human (endogenous in 293T)) (UniProt Q92547). Described as above.

Turning to “Med13 (mediator of transcription subunit 13), endogenous (from UniProt Q9UHV7 1-2174)”, the binding result in assay [1] is “no binding”.

As for “cyclin C, endogenous (from UniProt P24863 1-283)”, the binding result in assay [2] and in assay [1] was “binds” each time.

With “Cdk8 (cyclin-dependent kinase 8), endogenous (from UniProt P49336 1-464) (enzyme)”, the binding result is listed as “binds” in assay [3]; “no binding” in assay [4]; “binds” in assay [5]; “binds” in assay [6]; “binds” in assay [1].

As for “Cdk19 (cyclin-dependent kinase 19), endogenous (from UniProt Q9BWU1 1-502) (enzyme)”, the binding entry in assay [1] and in assay [7] was “binds” in each case.

For “Treslin/TICRR (TopBP1-interacting replication stimulating protein/TopBP1-interacting checkpoint and replication regulator), endogenous (from UniProt Q7Z2Z1 1-1910)”, the binding entry in assay [2], in assay [6] and in assay [8] was “binds” in each case.
